# According to the supplement of paper PMC8728848:
# The other results are listed elsewhere or left out.
# B1: ConA (Canavalia ensiformis), P02866 (protein)
# chain: MAISKKSSLFLPIFTFITMFLMVVNKVSSSTHETNALHFMFNQFSKDQKDLILQGDATTGTDGNLELTRVSSNGSPQGSSVGRALFYAPVHIWESSAVVASFEATFTFLIKSPDSHPADGIAFFISNIDSSIPSGSTGRLLGLFPDANVIRNSTTIDFNAAYNADTIVAVELDTYPNTDIGDPSYPHIGIDIKSVRSKKTAKWNMQNGKVGTAHIIYNSVDKRLSAVVSYPNADSATVSYDVDLDNVLPEWVRVGLSASTGLYKETNTILSWSFTSKLKSNEIPDIATVV
# Columns and labels:
# Assay in all cases: glycan array binding signal (z-score within array); higher = stronger binding
# Conditions in all cases: glycan notation: IUPAC condensed, linker removed
# Fuc(a1-2)Gal = target: Fuc(a1-2)Gal
# In short: (§1)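 From the Consortium for Functional Glycomics database, 3228 arrays were curated, keeping only those whose protein sequence was available. Binding is given as a within-array Z-score averaged across arrays sharing a protein sequence and across linkers. Negative Z-scores can be read as non-binding.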
# Fuc(a1-2)Gal(b1-3)GalNAc = target: Fuc(a1-2)Gal(b1-3)GalNAc
# In short: as §1
# [1] = target: Fuc(a1-2)Gal(b1-3)GalNAc(a1-3)[Fuc(a1-2)]Gal(b1-4)Glc
# In short: as §1
# [2] = target: Fuc(a1-2)Gal(b1-3)GalNAc(a1-3)[Fuc(a1-2)]Gal(b1-4)GlcNAc
# In short: as §1
# [3] = target: Fuc(a1-2)Gal(b1-3)GalNAc(b1-3)Gal
# In short: as §1
# [4] = target: Fuc(a1-2)Gal(b1-3)GalNAc(b1-3)Gal(a1-4)Gal(b1-4)Glc
# In short: as §1
# [5] = target: Fuc(a1-2)Gal(b1-3)GalNAc(b1-4)[Neu5Ac(a2-3)]Gal(b1-4)Glc
# In short: as §1
# Fuc(a1-2)Gal(b1-3)GlcNAc = target: Fuc(a1-2)Gal(b1-3)GlcNAc
# In short: as §1
# [6] = target: Fuc(a1-2)Gal(b1-3)GlcNAc(b1-2)Man(a1-3)[Fuc(a1-2)Gal(b1-3)GlcNAc(b1-2)Man(a1-6)]Man(b1-4)GlcNAc(b1-4)GlcNAc
# In short: as §1
# [7] = target: Fuc(a1-2)Gal(b1-3)GlcNAc(b1-2)Man(a1-3)[Fuc(a1-2)Gal(b1-3)GlcNAc(b1-2)Man(a1-6)]Man(b1-4)GlcNAc(b1-4)[Fuc(a1-6)]GlcNAc
# In short: as §1
# [8] = target: Fuc(a1-2)Gal(b1-3)GlcNAc(b1-3)Gal(b1-4)Glc
# In short: as §1
# [9] = target: Fuc(a1-2)Gal(b1-3)GlcNAc(b1-3)GalNAc
# In short: as §1
# [10] = target: Fuc(a1-2)Gal(b1-3)GlcNAc(b1-3)[Fuc(a1-3)[Gal(b1-4)]GlcNAc(b1-6)]Gal(b1-4)Glc
# In short: as §1
# [11] = target: Fuc(a1-2)Gal(b1-3)GlcNAc(b1-3)[Gal(b1-4)GlcNAc(b1-6)]Gal(b1-4)Glc
# In short: as §1
# [12] = target: Fuc(a1-2)Gal(b1-3)GlcNAc(b1-3)[Neu5Ac(a2-6)Gal(b1-4)GlcNAc(b1-6)]Gal(b1-4)Glc
# In short: as §1
# [13] = target: Fuc(a1-2)Gal(b1-3)[Fuc(a1-4)]GlcNAc
# In short: as §1
# [14] = target: Fuc(a1-2)Gal(b1-3)[Fuc(a1-4)]GlcNAc(b1-2)Man(a1-3)[Fuc(a1-2)Gal(b1-3)[Fuc(a1-4)]GlcNAc(b1-2)Man(a1-6)]Man(b1-4)GlcNAc(b1-4)GlcNAc
# In short: as §1
# [15] = target: Fuc(a1-2)Gal(b1-3)[Fuc(a1-4)]GlcNAc(b1-3)[Fuc(a1-3)[Gal(b1-4)]GlcNAc(b1-6)]Gal(b1-4)Glc
# In short: as §1
# [16] = target: Fuc(a1-2)Gal(b1-3)[Fuc(a1-4)]GlcNAc(b1-3)[Gal(b1-4)GlcNAc(b1-6)]Gal(b1-4)Glc
# In short: as §1
# Fuc(a1-2)Gal(b1-4)Glc = target: Fuc(a1-2)Gal(b1-4)Glc
# In short: as §1
# Fuc(a1-2)Gal(b1-4)Glc6S = target: Fuc(a1-2)Gal(b1-4)Glc6S
# In short: as §1
# Fuc(a1-2)Gal(b1-4)GlcNAc = target: Fuc(a1-2)Gal(b1-4)GlcNAc
# In short: as §1
# [17] = target: Fuc(a1-2)Gal(b1-4)GlcNAc(b1-2)Man(a1-3)[Fuc(a1-2)Gal(b1-4)GlcNAc(b1-2)Man(a1-6)]Man(b1-4)GlcNAc(b1-4)GlcNAc
# In short: as §1
# [18] = target: Fuc(a1-2)Gal(b1-4)GlcNAc(b1-2)Man(a1-3)[Fuc(a1-2)Gal(b1-4)GlcNAc(b1-2)Man(a1-6)]Man(b1-4)GlcNAc(b1-4)[Fuc(a1-6)]GlcNAc
# In short: as §1
# [19] = target: Fuc(a1-2)Gal(b1-4)GlcNAc(b1-2)[Fuc(a1-2)Gal(b1-4)GlcNAc(b1-4)]Man(a1-3)[Fuc(a1-2)Gal(b1-4)GlcNAc(b1-2)Man(a1-6)]Man(b1-4)GlcNAc(b1-4)GlcNAc
# In short: as §1
# [20] = target: Fuc(a1-2)Gal(b1-4)GlcNAc(b1-3)Gal(b1-4)GlcNAc
# In short: as §1
# [21] = target: Fuc(a1-2)Gal(b1-4)GlcNAc(b1-3)Gal(b1-4)GlcNAc(b1-3)Gal(b1-4)GlcNAc
# In short: as §1
# [22] = target: Fuc(a1-2)Gal(b1-4)GlcNAc(b1-3)GalNAc
# In short: as §1
# [23] = target: Fuc(a1-2)Gal(b1-4)GlcNAc(b1-3)[Fuc(a1-2)Gal(b1-4)GlcNAc(b1-6)]GalNAc
# In short: as §1
# [24] = target: Fuc(a1-2)Gal(b1-4)GlcNAc6S
# In short: as §1
# [25] = target: Fuc(a1-2)Gal(b1-4)[Fuc(a1-3)]GlcNAc
# In short: as §1
# [26] = target: Fuc(a1-2)Gal(b1-4)[Fuc(a1-3)]GlcNAc(b1-2)Man(a1-3)[Fuc(a1-2)Gal(b1-4)[Fuc(a1-3)]GlcNAc(b1-2)Man(a1-6)]Man(b1-4)GlcNAc(b1-4)GlcNAc
# In short: as §1
# [27] = target: Fuc(a1-2)Gal(b1-4)[Fuc(a1-3)]GlcNAc(b1-2)[Fuc(a1-2)Gal(b1-4)[Fuc(a1-3)]GlcNAc(b1-4)]Man(a1-3)[Fuc(a1-2)Gal(b1-4)[Fuc(a1-3)]GlcNAc(b1-2)Man(a1-6)]Man(b1-4)GlcNAc(b1-4)GlcNAc
# In short: as §1
# [28] = target: Fuc(a1-2)Gal(b1-4)[Fuc(a1-3)]GlcNAc(b1-3)Gal(b1-4)[Fuc(a1-3)]GlcNAc
# In short: as §1
# [29] = target: Fuc(a1-2)Gal(b1-4)[Fuc(a1-3)]GlcNAc(b1-3)Gal(b1-4)[Fuc(a1-3)]GlcNAc(b1-3)Gal(b1-4)[Fuc(a1-3)]GlcNAc
# In short: as §1
# [30] = target: Fuc(a1-2)Gal(b1-4)[Fuc(a1-3)]GlcNAc(b1-3)GalNAc
# In short: as §1
# Fuc(a1-2)Gal6S(b1-4)Glc = target: Fuc(a1-2)Gal6S(b1-4)Glc
# In short: as §1
binder,measurement,setting,value
B1,glycan array binding signal (z-score),Fuc(a1-2)Gal,-0.274
same,glycan array binding signal (z-score),Fuc(a1-2)Gal(b1-3)GalNAc,-0.261
same,glycan array binding signal (z-score),[1],-0.17
same,glycan array binding signal (z-score),[2],-0.214
same,glycan array binding signal (z-score),[3],-0.288
same,glycan array binding signal (z-score),[4],-0.286
same,glycan array binding signal (z-score),[5],-0.261
same,glycan array binding signal (z-score),Fuc(a1-2)Gal(b1-3)GlcNAc,-0.286
same,glycan array binding signal (z-score),[6],-0.103
same,glycan array binding signal (z-score),[7],-0.028
same,glycan array binding signal (z-score),[8],-0.263
same,glycan array binding signal (z-score),[9],-0.158
same,glycan array binding signal (z-score),[10],-0.244
same,glycan array binding signal (z-score),[11],-0.259
same,glycan array binding signal (z-score),[12],-0.189
same,glycan array binding signal (z-score),[13],-0.294
same,glycan array binding signal (z-score),[14],0.032
same,glycan array binding signal (z-score),[15],-0.22
same,glycan array binding signal (z-score),[16],-0.225
same,glycan array binding signal (z-score),Fuc(a1-2)Gal(b1-4)Glc,-0.3
same,glycan array binding signal (z-score),Fuc(a1-2)Gal(b1-4)Glc6S,-0.185
same,glycan array binding signal (z-score),Fuc(a1-2)Gal(b1-4)GlcNAc,-0.303
same,glycan array binding signal (z-score),[17],-0.207
same,glycan array binding signal (z-score),[18],-0.098
same,glycan array binding signal (z-score),[19],-0.138
same,glycan array binding signal (z-score),[20],-0.229
same,glycan array binding signal (z-score),[21],-0.221
same,glycan array binding signal (z-score),[22],-0.078
same,glycan array binding signal (z-score),[23],-0.139
same,glycan array binding signal (z-score),[24],-0.217
same,glycan array binding signal (z-score),[25],-0.247
same,glycan array binding signal (z-score),[26],-0.056
same,glycan array binding signal (z-score),[27],-0.138
same,glycan array binding signal (z-score),[28],-0.256
same,glycan array binding signal (z-score),[29],0.073
same,glycan array binding signal (z-score),[30],0.191
same,glycan array binding signal (z-score),Fuc(a1-2)Gal6S(b1-4)Glc,-0.254
